Biological target: T1, s-tagged PLAU (UniProt P00749)
T1 construct: also called recombinant PLAU
Assay: ELISA; solid-phase binding assay: plates coated with s-tagged PLAU at 1.5 ng/μL in PBS overnight at 4 °C, blocked with 5% NFDM in PBST, serial dilutions of NRP1-Fc in 5% BSA for 2 h at RT, anti-human IgG Fc-HRP; uncoated wells as controls
Settings: both partners purified

B1: Fc-tagged NRP1 ectodomain (Fc fusion)
chain: [not shown - about 600 residues]TYGFNCEFGWGSHKTFCHWEHDNHVQLKWSVLTSKTGPIQDHTGDGNFIYSQADENQKGKVARLVSPVVYSQNSAHCMTFWYHMSGSHVGTLRVKLRYQKPEEYDQLVWMAIGHQGDHWKEGRVLLHKSLKLYQVIFEGEIGKGNLGGIAVDDISINNHISQEDCAKPADLDKKNPEIKIDETGSTPGYEGEGEGDKNISRKPGNVLKTLDP
notes: also called NRP1-Fc; source: bought: Sino Biological, 10011-H02H
Kd: 9.5 nM
